Laboratory results as given in the supplement of paper PMC10338343.
± gives the standard deviation. Whole data set: some 6,600 sequences, median “pre-steady-state target cleavage rate” near 0.07, cut for the highest 2% near 0.72. The list shows a part of the results, in another mix than the full data.

The sequences below were run on MIWI (PIWIL1) piRISC loaded with Kctd7 piRNA (30 nt) (assay: pre-steady-state target cleavage rate (min^-1); MIWI and MILI are mouse PIWI proteins and EfPiwi is from a freshwater sponge; tags in brackets are library labels; higher = faster piRNA-guided slicing of the target). Conditions: guide: Kctd7 piRNA 5'p-UGUUAAUCUCUCAGAGAAGGUGACAGUGAU; auxiliary factor: 500 nM mouse GTSF1.
Protocol: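 Cleave-'n-Seq: a library of target RNAs (target site embedded in constant flanks, ACAGCATTCCGCGTTAGTGATATCCG... 5' flank; DNA-blocked outside the site) at 0.1 nM was incubated with 1 nM active mouse MILI or MIWI piRISC (synthetic 5'-monophosphorylated piRNA guide) with or without 500 nM mouse GTSF1 at 33 °C for 1 min to 16 h. Uncleaved targets were sequenced and normalised to non-target controls, and the pooled three trials were fitted to a burst-and-steady-state model to give the pre-steady-state cleavage rate (min^-1; k3 is constrained to at most 1e-4). Sequence is the target site only; target names encode pairing extent (gX:gY) and contiguous / 1-mismatch / 2-mismatch / bulge geometry. Fits with R² ≤ 0 are excluded.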

| Sequence | pre-steady-state target cleavage rate |
| --- | --- |
| UAGUGACUCACCUUCACUGAGAGAUUAAGA | 0.216 ± 0.035 |
| UAGUGACUCACCUUCUCUGAGAGAUUUAGA | 0.0446 ± 0.01 |
| AUGACUGUCACCUUCUCUGAGAGAUAUUGA | 0.00608 ± 0.0033 |
| UAGUGACUCACCUUCUCUGAGAGAUUAAACA | 0.448 ± 0.045 |
| UAGUGACACACCAUUCUCUGAGAGAUUAACA | 0.245 ± 0.022 |
| UAGUGAGUCACCUUCACUGAGAGAUUAUCA | 0.305 ± 0.055 |
| UAGUGUGUCACCUUCUCUGAGAGAUUCACA | 0.251 ± 0.046 |
| UAGUGACAGACCUUCUCUGAGUGAUUAACA | 0.0113 ± 0.0027 |
| UAGUGUGUCACCUACUCUGAGAGAUUUUGA | 0.0192 ± 0.0063 |
| AUCACUCAGACCUUCUCUGAGAGAUUAAGA | 0.00431 ± 0.0034 |
| UAGUGUGUCACCUUCUCUGAGAGAUAUACA | 0.0964 ± 0.019 |
| UAGUGUGUCACCUUCUCUGAGAUAUUAACA | 0.24 ± 0.027 |
| UUCACUGUCAGCUUCUCUGAGAGAUUAUGA | 0.0364 ± 0.0074 |
| UAGUGACACACCUUCUCUGAGAGAUUAGACA | 0.149 ± 0.021 |
| UAGUGACACUCCAUCUCUGAGAGAUUAACA | 0.0253 ± 0.007 |
| UAGACUGAGUCCUUCUCUGAGAGAUUAACA | 0.123 ± 0.014 |
| UAGUGACUCACCUUCUCUGAGAGAUUAAGCA | 0.25 ± 0.032 |
| AUCACUGUCACCUUCCUCUGAGAGAUUAACA | 0.523 ± 0.029 |
| UAGUCUGUCACCAACUCUGAGAGAUUAACA | 0.339 ± 0.041 |
| UAGUGACUCACCUUCUCUGAGAGAUUACCA | 0.149 ± 0.023 |
| UACACUGUCACCUUCUGUGAGAGAUAAACA | 0.0876 ± 0.012 |
| AUCACUGUCACCUUCUCCGAGAGAUUAACA | 0.45 ± 0.069 |
| AUCACAGUCACCUUCUCAGAGAGAUUAACA | 0.526 ± 0.036 |
| UAGUGACUCACCUUCUCUGAGAGAAUUACA | 0.0897 ± 0.027 |

| Sequence | pre-steady-state target cleavage rate |
| --- | --- |
| UAGUGUGUCACCUUUCUCUGAGAGAUUAACA | 0.384 ± 0.036 |
| UUCACUCACACCUUCUCUGAGAGAUAUUGA | 0.0372 ± 0.011 |
| UAGUCUGUCACCUUCUCUGAGAGAAAUAGA | 0.00945 ± 0.0047 |
| UAGUGAGAGACCUUCUCUGAGAGAUUAUGA | 0.0121 ± 0.0059 |
| UAGUGACAGUCCUUCUCUGAGAGAUUGACA | 0.0589 ± 0.013 |
| UAGUGACAGACCUUCUCUGGAGAUUAACA | 0.00338 ± 0.003 |
| UAGUGACAGUGGAAGUCUGAGAGAUUGACA | < 0.0001 |
| AUCACACUCACCUUCUCUGAGAGAUUAUGA | 0.0459 ± 0.012 |
| UAGUCUGUCACCUUCUCUGAGAGAAUUUGA | 0.0883 ± 0.026 |
| UAGUGACAGUGGAAGAGACUGAGAUAUAACA | < 0.0001 |
| UAGUGAGUCACCUUCUCUGAGAGAUUACACA | 0.236 ± 0.036 |
| UAGUGACAGUGGAAGAGACAGCAGAUUAACA | 0.0035 ± 0.003 |
| UAGUGAGUCACCUUCCCUGAGAGAUUAACA | 0.443 ± 0.083 |
| UAGUGAGUCACCUUCUCUGAGAGAUUUAACA | 0.268 ± 0.031 |
| UAGUGAGUCACCUUCUCUGUGAGAAUAACA | 0.0538 ± 0.01 |
| UAGUGACAGUGCUUCCCUGAGAGAUUAACA | 0.0102 ± 0.0029 |
| UUCACUGUCACCUUCUCUGAGAGAUAACA | 0.136 ± 0.02 |
| UAGUGACACACCUACUCUGAGAGAAUAACA | 0.0111 ± 0.0041 |
| UAGUCUGUCACCUUCACUGAGAGAUAUUGA | 0.0402 ± 0.014 |
| UAGUGACAGACCUUCCUCUGAGAGAUUAACA | 0.0189 ± 0.004 |
| UAGUGAGUCACCUUCUCUGAGACUUUAAGA | 0.0152 ± 0.0068 |
| UAGUGACACACCUUCUGUGAGAGAUUUUGA | 0.00776 ± 0.0045 |
| UAGUGACACACCUUCUCUGAGAGAAUUAACA | 0.158 ± 0.026 |
| UUGACUGACACCUUCUCUGAGAGAUUAACA | 0.577 ± 0.026 |

| Sequence | pre-steady-state target cleavage rate |
| --- | --- |
| UUCACUGUCACCUUCUGAGAGAGAUUAAGA | 0.0258 ± 0.011 |
| UAGUCUGUCACCUUCUCAGACAGAUUAACA | 0.0153 ± 0.0044 |
| UAGUGAGUCACCUUCUCUGAGAAAUUAACA | 0.237 ± 0.026 |
| UAGAGUGUCACCUUCUCAGAGAGAUUAACA | 0.564 ± 0.029 |
| AUGACUGUCACCUUGUCUGAGAGAUUAACA | 0.443 ± 0.074 |
| UAGUGACAGUGGAACUCUGAGAGAUUGACA | < 0.0001 |
| AUCACAGUCAGCUUCUCUGAGAGAUUAACA | 0.722 ± 0.03 |
| UAGAUGUCACCUUCUCUGAGAGAUUAACA | 0.696 ± 0.032 |
| UUGUGUGUCACCUUCUCUGAGAGAUAUUGA | 0.0658 ± 0.021 |
| AUCACUGUCACCUUCUCUGAGAGACUAACA | 0.277 ± 0.024 |
| UAGUGACACAGCUUCUCUGAGACAUUAACA | 0.0143 ± 0.0027 |
| AUCACUGUCACCUAGACUGAGAGAUUAAGA | 0.0119 ± 0.0058 |
| UAGACUGUCACCUUCUCUGACAGUUUAACA | 0.00392 ± 0.003 |
| UUCACUGUCACCUUUCUCUGAGAGAUUAACA | 0.581 ± 0.026 |
| UAGACACACACCUUCUCUGAGAGAUUUUGA | 0.0522 ± 0.017 |
| UAGUGAGUCACCAUCUCUGAGAGAUUAACA | 0.673 ± 0.046 |
| UAGUCUGUCACCUUCUCUGAGAGAAUAUCA | 0.101 ± 0.027 |
| UAGUGUGUCUCCUACUCUGAGAGAUUAACA | 0.211 ± 0.018 |
| UAGUGAGACAGCUUCUCUGAGAGAUUAACA | 0.226 ± 0.014 |
| UAGUGACACACCUUCUCUCUGAGAUUAACA | 0.00464 ± 0.0031 |
| UACAGACUCACCUUCUCUGAGAGAUUAACA | 0.587 ± 0.045 |
| UAGUGACUCACCUUCUCUGUGAGAUUUACA | 0.0412 ± 0.0086 |
| UACACUGUCACCUUCUCUGAGAUAUUAACA | 0.353 ± 0.042 |
| UAGUGAGUGACCUUCUCUGAGAGAUUAUCA | 0.154 ± 0.021 |
